Source: article PMC5700166
This is a selection; strong and weak results do not stand in their true shares. The list includes weakly bound sequences.

Experiments:
Experiment in all cases: protein-binding microarray (PBM)
Settings in all cases: PBM: ~300 nM protein, 6 mM HEPES pH 7.8, 80 mM KCl, 0.5 mM EDTA, 0.5 mM EGTA, 6% glycerol, 35 ng/ul poly-dIdC, 1% milk, 1 h, room temperature; Ap Aiptasia and Nv Nematostella (sea anemones) / Co Capsaspora / Aq Amphimedon (sponge) / Dm Drosophila / Hu human; RHD is the Rel homology domain; high values mean tight binding; most listed sequences are background and not binding sites; double strand, one strand shown
GST-Ap-NF-kB RHD = biological target: T1, GST-Ap-NF-kB RHD (UniProt A0A913YAJ5)
T1 sequence: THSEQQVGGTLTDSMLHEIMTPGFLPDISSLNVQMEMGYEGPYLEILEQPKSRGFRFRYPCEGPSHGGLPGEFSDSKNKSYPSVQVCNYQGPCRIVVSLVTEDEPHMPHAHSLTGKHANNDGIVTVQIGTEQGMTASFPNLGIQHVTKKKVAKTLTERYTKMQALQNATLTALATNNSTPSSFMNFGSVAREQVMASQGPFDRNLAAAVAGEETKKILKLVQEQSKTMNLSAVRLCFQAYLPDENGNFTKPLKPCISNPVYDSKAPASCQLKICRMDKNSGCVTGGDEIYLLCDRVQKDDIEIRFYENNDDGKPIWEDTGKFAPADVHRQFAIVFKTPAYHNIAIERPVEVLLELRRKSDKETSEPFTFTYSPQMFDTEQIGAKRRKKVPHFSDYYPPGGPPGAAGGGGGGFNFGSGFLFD

[1] = biological target: T2, GST-Nv-NF-kB (Cys allele) (UniProt E5G601)
T2 sequence: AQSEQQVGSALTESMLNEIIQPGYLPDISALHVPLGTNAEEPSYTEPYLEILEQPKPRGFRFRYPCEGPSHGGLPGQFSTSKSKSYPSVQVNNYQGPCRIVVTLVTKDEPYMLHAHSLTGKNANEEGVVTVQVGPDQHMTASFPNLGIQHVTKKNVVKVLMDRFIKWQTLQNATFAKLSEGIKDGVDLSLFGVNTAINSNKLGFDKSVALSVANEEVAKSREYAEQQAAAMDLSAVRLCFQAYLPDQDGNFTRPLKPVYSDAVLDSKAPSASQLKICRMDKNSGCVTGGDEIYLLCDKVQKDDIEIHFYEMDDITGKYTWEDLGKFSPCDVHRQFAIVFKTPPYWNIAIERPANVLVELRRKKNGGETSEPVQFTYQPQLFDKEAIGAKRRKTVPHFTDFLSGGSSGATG

GST-Co-NF-kB = biological target: T3, GST-Co-NF-kB (UniProt F1ARL5)
T3 sequence: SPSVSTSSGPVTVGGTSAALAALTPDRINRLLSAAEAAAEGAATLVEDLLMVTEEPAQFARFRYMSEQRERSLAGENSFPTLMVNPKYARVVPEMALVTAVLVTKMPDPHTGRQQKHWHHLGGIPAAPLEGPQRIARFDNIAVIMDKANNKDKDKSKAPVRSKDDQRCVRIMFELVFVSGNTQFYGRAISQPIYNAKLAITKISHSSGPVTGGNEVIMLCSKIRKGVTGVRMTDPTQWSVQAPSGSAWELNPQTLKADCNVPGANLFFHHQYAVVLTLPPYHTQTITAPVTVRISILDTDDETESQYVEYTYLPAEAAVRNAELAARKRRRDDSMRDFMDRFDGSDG

GST-Dm-Relish = biological target: T4, GST-Dm-Relish (UniProt Q94527)
T4 sequence: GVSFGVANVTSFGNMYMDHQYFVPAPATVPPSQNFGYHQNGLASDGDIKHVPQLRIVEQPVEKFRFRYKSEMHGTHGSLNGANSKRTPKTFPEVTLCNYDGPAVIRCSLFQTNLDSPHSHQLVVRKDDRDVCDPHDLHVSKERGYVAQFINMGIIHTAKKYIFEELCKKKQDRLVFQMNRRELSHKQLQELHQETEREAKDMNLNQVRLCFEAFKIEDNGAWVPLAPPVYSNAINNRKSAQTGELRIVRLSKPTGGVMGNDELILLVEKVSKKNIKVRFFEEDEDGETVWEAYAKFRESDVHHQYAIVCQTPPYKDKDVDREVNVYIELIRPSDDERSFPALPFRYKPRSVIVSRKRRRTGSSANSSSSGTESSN

GST-Aq-NF-kB = biological target: T5, GST-Aq-NF-kB (UniProt A9Y5G7)
T5 sequence: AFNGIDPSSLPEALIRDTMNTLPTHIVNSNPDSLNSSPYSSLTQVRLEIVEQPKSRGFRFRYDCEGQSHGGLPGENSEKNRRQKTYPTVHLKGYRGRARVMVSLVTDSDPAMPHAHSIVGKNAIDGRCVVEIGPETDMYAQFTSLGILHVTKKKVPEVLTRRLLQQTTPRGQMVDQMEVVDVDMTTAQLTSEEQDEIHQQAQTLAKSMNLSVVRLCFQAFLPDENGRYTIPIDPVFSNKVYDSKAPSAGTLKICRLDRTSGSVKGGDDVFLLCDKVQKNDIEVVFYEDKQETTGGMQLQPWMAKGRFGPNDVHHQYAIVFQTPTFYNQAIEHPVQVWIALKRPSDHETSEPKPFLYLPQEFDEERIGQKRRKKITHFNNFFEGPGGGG

Sequence | binding signal (GST-Ap-NF-kB RHD) [z-score] | binding signal [1] [z-score] | binding signal (GST-Co-NF-kB) [z-score] | binding signal (GST-Dm-Relish) [z-score] | binding signal (GST-Aq-NF-kB) [z-score]
CCGATTAACATCAAAGCCACGAGTGATGTTAATCGGGTCTTGATTCGCTTGACGCTGCTG | -0.21 | -0.735 | -0.469 | -0.28 | -0.527
CCGATTAACATCAACATTCATAATGATGTTAATCGGGTCTTGATTCGCTTGACGCTGCTG | 0.0313 | -1.01 | -0.987 | -0.336 | -0.482
CCGATTAACATCATATACTAATCTGATGTTAATCGGGTCTTGATTCGCTTGACGCTGCTG | -0.23 | -0.0186 | 0.0844 | -0.498 | -0.431
CCGATTAACATCAATAAACGCTGTGATGTTAATCGGGTCTTGATTCGCTTGACGCTGCTG | -0.388 | 0.0176 | -0.0386 | 0.194 | -0.392
CCGATTAACATCAAGAGAGTTGCTGATGTTAATCGGGTCTTGATTCGCTTGACGCTGCTG | -0.059 | -0.42 | 0.0232 | 0.131 | -0.389
CCGATTAACATCACTTGCGCTATTGATGTTAATCGGGTCTTGATTCGCTTGACGCTGCTG | 0.085 | 0.065 | -0.0207 | -0.159 | -0.325
CCGATTAACATCACGACAGTAAATGATGTTAATCGGGTCTTGATTCGCTTGACGCTGCTG | 0.302 | 0.725 | 0.408 | 0.31 | -0.0331
CCGATTAACATCACCATGATAGCTGATGTTAATCGGGTCTTGATTCGCTTGACGCTGCTG | -0.14 | -0.536 | 0.384 | -0.335 | -0.268
CCGATTAACATCACCGTTAGGCGTGATGTTAATCGGGTCTTGATTCGCTTGACGCTGCTG | 0.0491 | 0.183 | 0.609 | 0.718 | 0.123
CCGATTAACATCAGGAATTAACATGATGTTAATCGGGTCTTGATTCGCTTGACGCTGCTG | -0.323 | -0.0529 | -0.168 | 0.621 | 0.0645
CCGATTAACATCATTCTCTTAAGTGATGTTAATCGGGTCTTGATTCGCTTGACGCTGCTG | -0.552 | -0.453 | -0.259 | -0.309 | -0.336
CCGATTAACATCATTCTTTTAGATGATGTTAATCGGGTCTTGATTCGCTTGACGCTGCTG | -0.982 | -0.0832 | -0.662 | -0.463 | -0.833
CCGATTAACATCAGTCCAAAGCATGATGTTAATCGGGTCTTGATTCGCTTGACGCTGCTG | -0.323 | -0.341 | -0.377 | -0.727 | -0.232
CCGATTAACATCACCTTTATCCATGATGTTAATCGGGTCTTGATTCGCTTGACGCTGCTG | 0.157 | -0.864 | 0.346 | 0.137 | 0.607
CCGATTAACATCAATGAATTTCCTGATGTTAATCGGGTCTTGATTCGCTTGACGCTGCTG | -0.198 | -0.326 | 0.703 | 0.247 | 0.654
CCGATTAACATCATCTCGTAGAATGATGTTAATCGGGTCTTGATTCGCTTGACGCTGCTG | -1.48 | -0.129 | -0.796 | -0.536 | -0.373
CCGATTAACATCAGACGAATGCCTGATGTTAATCGGGTCTTGATTCGCTTGACGCTGCTG | -1.28 | -0.349 | -1.66 | -1.18 | -0.601
CCGATTAACATCAGCGCCGGGTTTGATGTTAATCGGGTCTTGATTCGCTTGACGCTGCTG | 0.0568 | -0.147 | 0.176 | -0.145 | 0.277
CCGATTAACATCAAAATTCCATTTGATGTTAATCGGGTCTTGATTCGCTTGACGCTGCTG | -1.4 | 0.116 | -0.615 | 0.897 | 0.325
CCGATTAACATCAAATTTTCCACTGATGTTAATCGGGTCTTGATTCGCTTGACGCTGCTG | -0.147 | 0.224 | 0.462 | 1.2 | 0.542
CCGATTAACATCACGCCGACTTTTGATGTTAATCGGGTCTTGATTCGCTTGACGCTGCTG | 0.568 | 0.0035 | -0.184 | 0.0745 | -0.352
CCGATTAACATCAAGCCAAGGCCTGATGTTAATCGGGTCTTGATTCGCTTGACGCTGCTG | -1.34 | -0.482 | -2.19 | -1.1 | -0.844
CCGATTAACATCAGGAATCCCCCTGATGTTAATCGGGTCTTGATTCGCTTGACGCTGCTG | 10.9 | 10.2 | 5.73 | 10.2 | 9.58
CCGATTAACATCAGGATATGCCCTGATGTTAATCGGGTCTTGATTCGCTTGACGCTGCTG | 0.104 | 0.147 | -0.678 | 0.0206 | 1.7
CCGATTAACATCAAAACGAAATGTGATGTTAATCGGGTCTTGATTCGCTTGACGCTGCTG | -0.588 | -0.11 | 0.346 | 0.405 | -0.329
CCGATTAACATCACGAATTTTCCTGATGTTAATCGGGTCTTGATTCGCTTGACGCTGCTG | -0.0362 | 0.245 | 0.94 | 0.17 | 0.426
CCGATTAACATCACGGAAATGCCTGATGTTAATCGGGTCTTGATTCGCTTGACGCTGCTG | 0.336 | 0.0236 | 0.425 | -0.1 | 1.48
